Target: LRP on mouse embryonic fibroblast (MEF) cells (mouse) (UniProt Q91ZX7)
Experiment: cell-based or functional assay
Settings: scale: % of the corresponding amounts of 125I-fVIII

Chain of UniProt Q91ZX7 (Q91ZX7 20-4545): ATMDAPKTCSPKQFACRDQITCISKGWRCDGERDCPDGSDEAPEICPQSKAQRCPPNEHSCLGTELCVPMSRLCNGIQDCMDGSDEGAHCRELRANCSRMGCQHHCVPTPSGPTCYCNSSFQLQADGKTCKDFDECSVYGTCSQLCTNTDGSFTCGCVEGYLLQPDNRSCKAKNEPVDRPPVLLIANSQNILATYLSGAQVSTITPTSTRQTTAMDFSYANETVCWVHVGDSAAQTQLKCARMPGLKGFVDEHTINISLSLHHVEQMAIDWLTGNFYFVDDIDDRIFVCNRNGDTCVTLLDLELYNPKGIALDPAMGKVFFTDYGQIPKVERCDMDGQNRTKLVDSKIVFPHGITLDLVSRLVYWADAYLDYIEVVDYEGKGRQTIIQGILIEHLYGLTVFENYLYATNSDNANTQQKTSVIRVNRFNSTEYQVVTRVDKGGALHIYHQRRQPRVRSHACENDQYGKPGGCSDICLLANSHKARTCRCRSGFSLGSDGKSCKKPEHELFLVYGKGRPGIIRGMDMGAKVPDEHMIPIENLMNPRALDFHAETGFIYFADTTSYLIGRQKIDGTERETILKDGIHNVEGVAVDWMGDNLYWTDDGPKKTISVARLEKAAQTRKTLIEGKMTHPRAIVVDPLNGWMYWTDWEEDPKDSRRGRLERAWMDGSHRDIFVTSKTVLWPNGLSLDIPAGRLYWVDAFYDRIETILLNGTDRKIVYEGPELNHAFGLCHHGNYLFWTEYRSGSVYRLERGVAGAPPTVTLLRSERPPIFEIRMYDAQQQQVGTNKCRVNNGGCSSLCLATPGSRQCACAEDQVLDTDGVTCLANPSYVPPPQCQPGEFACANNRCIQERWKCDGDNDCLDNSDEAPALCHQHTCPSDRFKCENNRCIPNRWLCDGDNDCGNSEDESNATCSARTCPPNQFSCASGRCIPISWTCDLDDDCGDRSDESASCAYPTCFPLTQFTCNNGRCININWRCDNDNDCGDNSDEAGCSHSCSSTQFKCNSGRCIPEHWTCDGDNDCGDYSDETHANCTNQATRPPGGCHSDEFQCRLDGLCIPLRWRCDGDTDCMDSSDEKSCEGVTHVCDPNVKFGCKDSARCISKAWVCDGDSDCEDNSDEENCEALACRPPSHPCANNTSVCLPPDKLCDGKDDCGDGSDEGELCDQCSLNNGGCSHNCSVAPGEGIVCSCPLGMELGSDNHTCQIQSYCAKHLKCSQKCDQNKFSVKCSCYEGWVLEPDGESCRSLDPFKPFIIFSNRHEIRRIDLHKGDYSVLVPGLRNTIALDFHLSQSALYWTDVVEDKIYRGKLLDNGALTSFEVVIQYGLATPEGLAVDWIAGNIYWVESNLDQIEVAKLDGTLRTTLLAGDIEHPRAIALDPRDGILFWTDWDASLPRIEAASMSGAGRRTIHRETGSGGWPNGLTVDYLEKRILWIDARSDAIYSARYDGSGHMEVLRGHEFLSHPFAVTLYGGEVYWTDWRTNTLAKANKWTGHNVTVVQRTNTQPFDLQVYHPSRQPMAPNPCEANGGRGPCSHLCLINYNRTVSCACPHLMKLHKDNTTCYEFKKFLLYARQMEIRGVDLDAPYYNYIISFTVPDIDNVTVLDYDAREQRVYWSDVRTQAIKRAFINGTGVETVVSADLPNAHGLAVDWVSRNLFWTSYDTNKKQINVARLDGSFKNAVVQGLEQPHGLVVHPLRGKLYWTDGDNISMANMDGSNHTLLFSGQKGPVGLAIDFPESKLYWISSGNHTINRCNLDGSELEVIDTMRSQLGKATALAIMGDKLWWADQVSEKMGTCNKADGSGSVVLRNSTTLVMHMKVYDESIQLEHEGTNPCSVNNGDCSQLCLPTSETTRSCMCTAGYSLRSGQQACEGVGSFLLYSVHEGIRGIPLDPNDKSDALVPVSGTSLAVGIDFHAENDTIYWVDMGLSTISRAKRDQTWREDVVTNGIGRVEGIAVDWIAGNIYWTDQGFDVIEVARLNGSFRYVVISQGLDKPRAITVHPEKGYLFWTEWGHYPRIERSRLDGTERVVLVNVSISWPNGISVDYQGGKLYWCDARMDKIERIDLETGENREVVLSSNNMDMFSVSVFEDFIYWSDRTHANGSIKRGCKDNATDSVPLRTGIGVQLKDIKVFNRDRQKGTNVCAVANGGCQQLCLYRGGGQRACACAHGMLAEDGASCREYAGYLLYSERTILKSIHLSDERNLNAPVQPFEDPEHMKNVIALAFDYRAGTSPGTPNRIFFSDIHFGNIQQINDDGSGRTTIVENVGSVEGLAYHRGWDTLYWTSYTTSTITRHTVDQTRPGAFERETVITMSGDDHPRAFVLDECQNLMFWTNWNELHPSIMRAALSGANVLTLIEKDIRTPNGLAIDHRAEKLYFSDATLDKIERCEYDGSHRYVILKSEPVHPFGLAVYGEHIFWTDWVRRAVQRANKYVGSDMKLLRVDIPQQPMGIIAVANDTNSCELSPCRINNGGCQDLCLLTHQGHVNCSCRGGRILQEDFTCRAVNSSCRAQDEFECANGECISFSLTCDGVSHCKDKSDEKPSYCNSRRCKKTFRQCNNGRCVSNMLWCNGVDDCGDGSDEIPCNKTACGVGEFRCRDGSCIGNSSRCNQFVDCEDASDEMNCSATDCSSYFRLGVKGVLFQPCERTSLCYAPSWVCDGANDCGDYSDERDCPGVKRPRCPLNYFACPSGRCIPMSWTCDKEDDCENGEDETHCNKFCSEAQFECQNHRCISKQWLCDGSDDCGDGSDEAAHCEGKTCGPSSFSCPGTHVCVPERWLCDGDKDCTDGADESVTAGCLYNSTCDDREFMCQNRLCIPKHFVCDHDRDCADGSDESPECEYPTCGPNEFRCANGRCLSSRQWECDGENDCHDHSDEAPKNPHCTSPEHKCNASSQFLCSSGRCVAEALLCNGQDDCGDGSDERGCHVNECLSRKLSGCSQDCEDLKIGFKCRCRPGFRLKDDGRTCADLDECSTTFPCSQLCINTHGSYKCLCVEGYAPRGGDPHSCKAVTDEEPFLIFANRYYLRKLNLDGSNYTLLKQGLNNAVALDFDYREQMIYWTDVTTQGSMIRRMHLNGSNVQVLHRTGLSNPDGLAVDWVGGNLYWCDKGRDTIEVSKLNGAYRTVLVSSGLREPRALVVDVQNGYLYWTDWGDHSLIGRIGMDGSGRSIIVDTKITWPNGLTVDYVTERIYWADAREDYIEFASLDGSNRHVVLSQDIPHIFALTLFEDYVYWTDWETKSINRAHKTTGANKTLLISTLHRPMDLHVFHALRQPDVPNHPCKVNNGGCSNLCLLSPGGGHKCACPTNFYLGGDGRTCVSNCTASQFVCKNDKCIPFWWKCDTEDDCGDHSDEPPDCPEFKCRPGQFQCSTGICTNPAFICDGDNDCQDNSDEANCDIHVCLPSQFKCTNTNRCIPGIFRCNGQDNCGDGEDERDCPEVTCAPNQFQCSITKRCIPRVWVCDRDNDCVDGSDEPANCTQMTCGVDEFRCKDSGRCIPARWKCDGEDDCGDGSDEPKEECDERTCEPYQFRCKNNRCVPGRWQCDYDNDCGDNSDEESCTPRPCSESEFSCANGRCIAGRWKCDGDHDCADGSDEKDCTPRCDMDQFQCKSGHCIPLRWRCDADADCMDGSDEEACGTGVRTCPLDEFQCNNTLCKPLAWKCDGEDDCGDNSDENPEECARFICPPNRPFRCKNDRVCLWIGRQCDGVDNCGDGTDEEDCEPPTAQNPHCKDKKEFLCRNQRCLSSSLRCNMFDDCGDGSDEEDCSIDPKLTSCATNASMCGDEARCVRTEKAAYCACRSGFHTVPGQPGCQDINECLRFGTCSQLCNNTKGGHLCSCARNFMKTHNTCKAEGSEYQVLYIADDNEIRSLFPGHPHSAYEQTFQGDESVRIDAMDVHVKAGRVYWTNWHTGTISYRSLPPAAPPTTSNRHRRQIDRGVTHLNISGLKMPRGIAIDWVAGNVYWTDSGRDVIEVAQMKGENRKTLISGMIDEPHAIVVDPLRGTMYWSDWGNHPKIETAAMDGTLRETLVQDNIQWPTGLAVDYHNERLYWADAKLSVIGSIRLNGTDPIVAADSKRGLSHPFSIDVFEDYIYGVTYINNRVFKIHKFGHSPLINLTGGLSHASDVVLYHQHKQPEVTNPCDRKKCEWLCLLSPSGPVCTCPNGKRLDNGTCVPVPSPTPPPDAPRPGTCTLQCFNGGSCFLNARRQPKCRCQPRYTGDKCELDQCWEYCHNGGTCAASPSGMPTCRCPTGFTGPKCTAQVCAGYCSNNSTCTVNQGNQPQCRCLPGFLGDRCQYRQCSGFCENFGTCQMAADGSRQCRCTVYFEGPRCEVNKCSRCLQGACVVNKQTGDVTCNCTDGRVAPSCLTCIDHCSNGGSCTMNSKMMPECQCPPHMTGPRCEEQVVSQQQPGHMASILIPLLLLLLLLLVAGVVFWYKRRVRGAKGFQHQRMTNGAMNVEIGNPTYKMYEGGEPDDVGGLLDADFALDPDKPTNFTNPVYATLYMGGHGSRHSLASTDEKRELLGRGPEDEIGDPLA

internalized and degraded 125I-vWf from its complex with fVIII, MEF and PEA 13 cells: < 5
Substance: von Willebrand factor (vWf) (a stretch of the chain, no sequence given)

— US20040248785A1
